# From the supplement of paper PMC10037445
# The full ranking holds about 2,900 compounds; the median of “NF-kB SEAP reporter activity, fold change vs agonist alone” is about 0.99, and the highest 2% start at about 2.6. The list shows a part of the results.
# Experiments:
# RAW-Dual [1] = test: NF-kB SEAP reporter activity, fold change vs agonist alone; cytotoxicity flag (confluency mask): cytotoxic (confluency <70% of control); higher = enhanced NF-kB activity
# In short: (§1)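 Cytotoxic wells were those whose IncuCyte confluency was below 70% of agonist controls in both mask sets. The cells were RAW-Dual macrophages at 50,000 cells/well in DMEM on 384-well plates, dosed with 50 nL of library stock by pin tool, stimulated with a PRR agonist 1 h later, and kept at 37 °C, 5% CO2 for 20 hours. IRF and NF-κB reporter activity, as fold change over agonist-alone wells, came from supernatant read by QuantiLuc luminescence and QuantiBlue absorbance, respectively.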
# RAW-Dual [2] = test: NF-kB SEAP reporter activity, fold change vs agonist alone; higher = enhanced NF-kB activity; settings: library stock concentration (final ~1000-fold dilution): 10 mM
# In short: as §1
# RAW-Dual [3] = test: NF-kB SEAP reporter activity, fold change vs agonist alone; cytotoxicity flag (confluency mask): not cytotoxic; higher = enhanced NF-kB activity
# In short: as §1
# [4] = agonist: ODN 1826 (TLR9) 0.5 ug/mL
# [5] = agonist: Pam2CSK4 (TLR2/6) 0.1 ug/mL
# [6] = agonist: Pam3CSK4 (TLR2/1) 0.1 ug/mL
# [7] = cytotoxicity flag (confluency mask): cytotoxic (confluency <70% of control), agonist: Imiquimod (TLR7) […]
# [8] = cytotoxicity flag (confluency mask): cytotoxic (confluency <70% of control), agonist: MPLA (TLR4) […]
# [9] = cytotoxicity flag (confluency mask): not cytotoxic, agonist: Imiquimod (TLR7) […]
# [10] = cytotoxicity flag (confluency mask): not cytotoxic, agonist: MPLA (TLR4) […]
compound,measurement,setting,value
Cc1nnsc1C(=O)Nc1ccc(-n2nc(C(F)(F)F)cc2C(F)(F)F)cc1 (library stock concentration (final ~1000-fold dilution): 10 mM),NF-kB SEAP reporter activity,RAW-Dual [1]; agonist: LPS (TLR4) 0.1 ug/mL,0.794
same,NF-kB SEAP reporter activity,RAW-Dual [1]; [4],0.63
same,NF-kB SEAP reporter activity,RAW-Dual [1]; [5],0.374
same,NF-kB SEAP reporter activity,RAW-Dual [1]; [6],0.307
Cc1nnsc1C(=O)Nc1ccc(-n2nc(C(F)(F)F)cc2C(F)(F)F)cc1,NF-kB SEAP reporter activity,RAW-Dual [2]; [7],0.853
same,NF-kB SEAP reporter activity,RAW-Dual [2]; [8],1
C=CC(=O)Nc1cccc(Nc2nc(Nc3ccc(Oc4ccnc(C(=O)NC)c4)cc3)ncc2F)c1,NF-kB SEAP reporter activity,RAW-Dual [2]; [9],1.36
same,NF-kB SEAP reporter activity,RAW-Dual [2]; [10],2.27
C=CC(=O)Nc1cccc(Nc2nc(Nc3ccc(Oc4ccnc(C(=O)NC)c4)cc3)ncc2F)c1 (library stock concentration (final ~1000-fold dilution): 10 mM),NF-kB SEAP reporter activity,RAW-Dual [3]; agonist: LPS (TLR4) 0.1 ug/mL,1.14
same,NF-kB SEAP reporter activity,RAW-Dual [3]; [4],2.1
same,NF-kB SEAP reporter activity,RAW-Dual [3]; [5],0.379
same,NF-kB SEAP reporter activity,RAW-Dual [3]; [6],0.886
CCCOC(=O)c1cc(O)c(O)c(O)c1,NF-kB SEAP reporter activity,RAW-Dual [2]; [10],1.32
CCCOC(=O)c1cc(O)c(O)c(O)c1 (library stock concentration (final ~1000-fold dilution): 10 mM),NF-kB SEAP reporter activity,RAW-Dual [3]; agonist: LPS (TLR4) 0.1 ug/mL,1.37
same,NF-kB SEAP reporter activity,RAW-Dual [3]; [4],0.717
same,NF-kB SEAP reporter activity,RAW-Dual [3]; [5],0.872
same,NF-kB SEAP reporter activity,RAW-Dual [3]; [6],0.892
CC(C)c1cc(-c2n[nH]c(=O)n2-c2ccc3c(ccn3C)c2)c(O)cc1O (library stock concentration (final ~1000-fold dilution): 10 mM),NF-kB SEAP reporter activity,RAW-Dual [1]; agonist: LPS (TLR4) 0.1 ug/mL,0.349
same,NF-kB SEAP reporter activity,RAW-Dual [1]; [4],0.25
same,NF-kB SEAP reporter activity,RAW-Dual [1]; [5],0.0897
same,NF-kB SEAP reporter activity,RAW-Dual [1]; [6],0.148
CC(C)c1cc(-c2n[nH]c(=O)n2-c2ccc3c(ccn3C)c2)c(O)cc1O,NF-kB SEAP reporter activity,RAW-Dual [2]; [7],0.313
same,NF-kB SEAP reporter activity,RAW-Dual [2]; [8],0.713
COC1CCC(N2C(=O)CNc3ncc(-c4ccc(C(C)(C)O)nc4)nc32)CC1 (stereo not given),NF-kB SEAP reporter activity,RAW-Dual [2]; [9],0.711
same,NF-kB SEAP reporter activity,RAW-Dual [2]; [10],0.53
COC1CCC(N2C(=O)CNc3ncc(-c4ccc(C(C)(C)O)nc4)nc32)CC1 (stereo not given) (library stock concentration (final ~1000-fold dilution): 10 mM),NF-kB SEAP reporter activity,RAW-Dual [3]; agonist: LPS (TLR4) 0.1 ug/mL,0.463
same,NF-kB SEAP reporter activity,RAW-Dual [3]; [4],0.349
same,NF-kB SEAP reporter activity,RAW-Dual [3]; [5],0.719
same,NF-kB SEAP reporter activity,RAW-Dual [3]; [6],0.458
NS(=O)(=O)OC[C@H]1C[C@@H](Nc2ccnc3cc(-c4cccc(SC(F)(F)F)c4)nn23)[C@H](O)[C@@H]1O (library stock concentration (final ~1000-fold dilution): 10 mM),NF-kB SEAP reporter activity,RAW-Dual [1]; agonist: LPS (TLR4) 0.1 ug/mL,0.308
same,NF-kB SEAP reporter activity,RAW-Dual [1]; [4],0.19
same,NF-kB SEAP reporter activity,RAW-Dual [1]; [5],0.0814
same,NF-kB SEAP reporter activity,RAW-Dual [1]; [6],0.152
NS(=O)(=O)OC[C@H]1C[C@@H](Nc2ccnc3cc(-c4cccc(SC(F)(F)F)c4)nn23)[C@H](O)[C@@H]1O,NF-kB SEAP reporter activity,RAW-Dual [2]; [7],0.145
same,NF-kB SEAP reporter activity,RAW-Dual [2]; [8],0.255
CCCc1nn(C)c2c(=O)[nH]c(-c3cc(S(=O)(=O)N4CCN(C)CC4)ccc3OCC)nc12.CS(=O)(=O)O (library stock concentration (final ~1000-fold dilution): 10 mM),NF-kB SEAP reporter activity,RAW-Dual [3]; agonist: LPS (TLR4) 0.1 ug/mL,1.32
same,NF-kB SEAP reporter activity,RAW-Dual [3]; [4],1.15
same,NF-kB SEAP reporter activity,RAW-Dual [3]; [5],0.846
same,NF-kB SEAP reporter activity,RAW-Dual [3]; [6],0.791
CCCc1nn(C)c2c(=O)[nH]c(-c3cc(S(=O)(=O)N4CCN(C)CC4)ccc3OCC)nc12.CS(=O)(=O)O,NF-kB SEAP reporter activity,RAW-Dual [2]; [10],1.05
O=C1c2ccccc2C(=O)C1c1ccc(Cl)cc1,NF-kB SEAP reporter activity,RAW-Dual [2]; [9],0.967
same,NF-kB SEAP reporter activity,RAW-Dual [2]; [10],1.35
O=C1c2ccccc2C(=O)C1c1ccc(Cl)cc1 (library stock concentration (final ~1000-fold dilution): 10 mM),NF-kB SEAP reporter activity,RAW-Dual [3]; agonist: LPS (TLR4) 0.1 ug/mL,1.14
same,NF-kB SEAP reporter activity,RAW-Dual [3]; [4],0.946
same,NF-kB SEAP reporter activity,RAW-Dual [3]; [5],0.939
same,NF-kB SEAP reporter activity,RAW-Dual [3]; [6],1.3
O=c1c(OC2OC(CO)C(O)C(O)C2O)c(-c2ccc(O)c(O)c2)oc2cc(O)cc(O)c12 (stereo not given) (library stock concentration (final ~1000-fold dilution): 10 mM),NF-kB SEAP reporter activity,RAW-Dual [3]; agonist: LPS (TLR4) 0.1 ug/mL,1.18
same,NF-kB SEAP reporter activity,RAW-Dual [3]; [4],1.07
same,NF-kB SEAP reporter activity,RAW-Dual [3]; [5],1.03
same,NF-kB SEAP reporter activity,RAW-Dual [3]; [6],1.06
O=c1c(OC2OC(CO)C(O)C(O)C2O)c(-c2ccc(O)c(O)c2)oc2cc(O)cc(O)c12 (stereo not given),NF-kB SEAP reporter activity,RAW-Dual [2]; [9],1.04
same,NF-kB SEAP reporter activity,RAW-Dual [2]; [10],0.976
N#CSc1cc(SC#N)c(N)nc1N,NF-kB SEAP reporter activity,RAW-Dual [2]; [7],1.33
same,NF-kB SEAP reporter activity,RAW-Dual [2]; [8],0.241
N#CSc1cc(SC#N)c(N)nc1N (library stock concentration (final ~1000-fold dilution): 10 mM),NF-kB SEAP reporter activity,RAW-Dual [1]; agonist: LPS (TLR4) 0.1 ug/mL,0.288
same,NF-kB SEAP reporter activity,RAW-Dual [1]; [4],0.401
same,NF-kB SEAP reporter activity,RAW-Dual [1]; [5],0.504
same,NF-kB SEAP reporter activity,RAW-Dual [1]; [6],0.407
Clc1ccc(Cn2c(CN3CCCC3)nc3ccccc32)cc1 (library stock concentration (final ~1000-fold dilution): 10 mM),NF-kB SEAP reporter activity,RAW-Dual [3]; agonist: LPS (TLR4) 0.1 ug/mL,0.98
same,NF-kB SEAP reporter activity,RAW-Dual [3]; [4],0.721
same,NF-kB SEAP reporter activity,RAW-Dual [3]; [5],1.08
same,NF-kB SEAP reporter activity,RAW-Dual [3]; [6],1.11
Clc1ccc(Cn2c(CN3CCCC3)nc3ccccc32)cc1,NF-kB SEAP reporter activity,RAW-Dual [2]; [9],0.973
same,NF-kB SEAP reporter activity,RAW-Dual [2]; [10],1.05
Oc1ccc2ccccc2c1SSc1c(O)ccc2ccccc12 (library stock concentration (final ~1000-fold dilution): 10 mM),NF-kB SEAP reporter activity,RAW-Dual [3]; agonist: LPS (TLR4) 0.1 ug/mL,1.04
same,NF-kB SEAP reporter activity,RAW-Dual [3]; [4],0.906
same,NF-kB SEAP reporter activity,RAW-Dual [3]; [5],0.912
same,NF-kB SEAP reporter activity,RAW-Dual [3]; [6],1.01
Oc1ccc2ccccc2c1SSc1c(O)ccc2ccccc12,NF-kB SEAP reporter activity,RAW-Dual [2]; [9],0.888
same,NF-kB SEAP reporter activity,RAW-Dual [2]; [10],0.954
COc1cc2nc(N(C)CCCNC(=O)C3CCCO3)nc(N)c2cc1OC (stereo not given) (library stock concentration (final ~1000-fold dilution): 10 mM),NF-kB SEAP reporter activity,RAW-Dual [3]; agonist: LPS (TLR4) 0.1 ug/mL,1.05
same,NF-kB SEAP reporter activity,RAW-Dual [3]; [4],0.857
same,NF-kB SEAP reporter activity,RAW-Dual [3]; [5],1.03
same,NF-kB SEAP reporter activity,RAW-Dual [3]; [6],1.07
COc1cc2nc(N(C)CCCNC(=O)C3CCCO3)nc(N)c2cc1OC (stereo not given),NF-kB SEAP reporter activity,RAW-Dual [2]; [9],0.996
same,NF-kB SEAP reporter activity,RAW-Dual [2]; [10],1.09
CCOC(=O)COc1ccc(/C=C2\SC(=S)NC2=O)cc1OC (library stock concentration (final ~1000-fold dilution): 10 mM),NF-kB SEAP reporter activity,RAW-Dual [3]; agonist: LPS (TLR4) 0.1 ug/mL,1.04
same,NF-kB SEAP reporter activity,RAW-Dual [3]; [4],0.889
same,NF-kB SEAP reporter activity,RAW-Dual [3]; [5],0.889
same,NF-kB SEAP reporter activity,RAW-Dual [3]; [6],1.1
